From the supplement of paper PMC12217912
The other results are listed elsewhere or left out. The full chains were built here from the parent and the listed change. Inactive controls read about 0.05.

B1: TEV protease; numbered along this chain (parent)
chain: MGESLFKGPRDYNPISSSICHLTNESDGHTTSLYGIGFGPFIITNKHLFRRNNGTLVVQSLHGVFKVKDTTTLQQHLVDGRDMIIIRMPKDFPPFPQKLKFREPQREERICLVTTNFQTKSMSSMVSDTSCTFPSGDGIFWKHWIQTKDGQCGSPLVSTRDGFIVGIHSASNFTNTNNYFTSVPKNFMELLTNQEAQQWVSGWRLNADSVLWGGHKVFMVKPEEPFQPVKEATQL

Variants of: B1
Assay: raw area under fraction-flipped curve 0-4 h after induction (AUC4h, not background-subtracted), DNA-recorder readout of cleavage of the substrate (dimensionless); higher = more cleavage of the substrate by the protease variant
Conditions: temperature: 34 °C; time window: 0-4 h after rhamnose induction
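Note: Bxb1 expression induced with 0.2% (w/v) L-rhamnose at OD600 near 0.5, cultures sampled hourly, flipped fraction per protease–substrate barcode pair counted by paired-end Illumina sequencing.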

Variant	area with substrate ENLDFQS	area with substrate ENLEFQS	area with substrate ENLFFQS	area with substrate ENLHFQS	area with substrate ENLNFQS	area with substrate ENLQFQS	area with substrate ENLIFQS	area with substrate ENLKFQS	area with substrate ENLRFQS	area with substrate ENLSFQS
F187T	0.0693	0.0592	0.075	0.0757	0.0259	0.0588				
F187W	0.0577	0.0514	0.0745	0.0657	0.0636	0.0707	0.0732	0.0516	0.058	0.0508
M188I	0.0673		0.0643	0.0696			0.0916	0.0995		0.0489
L190Q	0.0684	0.0537	0.0852					0.0932	0.0614	0.0804
N193D	0.0671			0.0469				0.0735		0.101
N193R	0.0731		0.123	0.0627	0.0668					
E195G	0.0872	0.0679		0.106	0.0601	0.0742	0.0891	0.0881	0.105	0.0602
E195V	0.0898				0.0483					
Q197P	0.0719	0.041	0.0802					0.0841	0.0879	
Q197S	0.058	0.0602	0.0908	0.068	0.0634	0.0667	0.0825	0.0717	0.0746	
R204A	0.0703	0.12	0.0726	0.0743	0.0778			0.0838	0.0975	0.0902
N206K	0.0635	0.0529						0.0859	0.0594	
S209L	0.0568	0.0603	0.0884		0.0491	0.0621				0.0611
G214Q	0.0486									
H215M	0.065		0.0664					0.0694	0.0683	
V217G	0.0454	0.0536		0.0502		0.0552		0.0503		
M219H	0.0727		0.0746	0.0681	0.0784	0.0634	0.0737	0.0565	0.0628	0.0659
V220T	0.0575	0.0725		0.076	0.0615				0.0753	0.0751
K221H	0.0577	0.0572	0.0741	0.0612	0.0571		0.0746	0.0761	0.0695	0.0648
Q227R	0.0536				0.0614				0.0689	0.0495
P228C	0.0611	0.064	0.0757	0.0465	0.0632		0.0767	0.0947	0.0681	0.0641
L235G	0.0473		0.0852		0.0497	0.0682				0.0722
L33C		0.0617	0.108		0.0525	0.0589	0.102			0.0699

Variant	area with substrate ENLDFQS	area with substrate ENLEFQS	area with substrate ENLFFQS	area with substrate ENLHFQS	area with substrate ENLNFQS	area with substrate ENLQFQS	area with substrate ENLIFQS	area with substrate ENLKFQS	area with substrate ENLRFQS	area with substrate ENLSFQS
V64S		0.0558	0.1				0.0876	0.093	0.0757	
M83V		0.0539	0.0614		0.0632	0.0423			0.0641	0.0625
F95T		0.0487			0.0154	0.0611	0.0537	0.0765		
C131Y		0.061				0.0711				
N178F		0.0516						0.153		0.0879
N186C		0.0676	0.0842		0.0434			0.0784	0.0691	
Q194V		0.0627				0.0738	0.0857		0.0693	
G213Q		0.0619	0.0612			0.0547	0.0643			
F218D		0.0646	0.0688		0.0668		0.058	0.0716	0.0594	0.0603
F218T		0.0666	0.0996	0.0722		0.0646				
K221A		0.0633			0.0784	0.0708			0.0722	0.053
Q227F		0.0764	0.0752	0.0675		0.0859	0.0957			0.0558
L235I		0.071		0.0536	0.0463					
Y34K			0.0611		0.0928		0.0877			
Q59A			0.0794		0.0711		0.108			
I86G			0.0803			0.0231		0.0452		0.0358
R87G			0.0731		0.0437			0.0654		
P93F			0.0842	0.058	0.0422			0.0688		
F101D			0.0727	0.0502	0.0439					
R102K			0.0829	0.127	0.0686	0.0611			0.0765	0.0593
I139H			0.0551		0.0596		0.0566			
H143I			0.0545				0.0721	0.0715	0.0664	

Same assay, conditions: temperature: 34 °C; time window: 0-4 h after rhamnose induction

Variant	area with substrate ENLTFQS	area with substrate ENLVFQS	area with substrate ENLWFQS	area with substrate ENLLFQS	area with substrate ENLMFQS	area with substrate ENLPFQS	area with substrate ENLGFQS
F187W	0.0501	0.0674	0.0535				
M188I				0.063	0.104	0.0446	
L190Q		0.0862	0.0673		0.0681		0.0635
N193D				0.0914			
N193R							0.0701
E195G	0.0786		0.0897				
Q197P						0.0656	
Q197S				0.0656			
R204A		0.104				0.0614	0.0769
N206K	0.0924			0.0773			
S209L		0.065		0.0567			
V217G		0.0637	0.0471	0.0528		0.078	
M219H		0.0827			0.0667		0.0565
V220T			0.0706				
K221H	0.0854			0.0701		0.0573	0.0561
Q227R					0.0779		
P228C		0.0868	0.0569	0.0715	0.0626		
L235G	0.0664			0.06			
L33C				0.0607		0.0681	

Variant	area with substrate ENLTFQS	area with substrate ENLVFQS	area with substrate ENLWFQS	area with substrate ENLLFQS	area with substrate ENLMFQS	area with substrate ENLPFQS	area with substrate ENLGFQS
V64S			0.078	0.089	0.031	0.054	0.0643
M83V			0.0721				
F95T				0.0507		0.0395	
C131Y			0.0737				
N178F	0.068						
N186C		0.0869			0.059		
Q194V		0.0981		0.0813		0.0607	
F218D			0.0695			0.0789	0.0744
F218T					0.0738		
K221A				0.0679	0.0684	0.0559	0.0753
Q227F		0.067		0.07	0.0638	0.0697	
L235I	0.0317					0.0644	
Q59A			0.0818				0.0707
I86G			0.0295	0.0482			
P93F							0.0619
F101D		0.0457		0.0528			
R102K		0.102	0.0591	0.079	0.0806	0.0612	
I139H		0.0774				0.0654	
H143I				0.0746	0.0538	0.0552	
